Laboratory results reported in PubChem BioAssay (NCATS).
This list was built around the results that the source calls inconclusive (neither active nor inactive); the mix of calls is not that of the screen. A potency beside an inconclusive call is a rough fit, not a confirmed value. Active and inactive are the calls of the source. The call rests on the fitted dose curve; in most records, active means well fitted curve in the direction sought with a large enough effect; inconclusive means small, poorly fitted or top-dose-only effect, or another doubt; inactive means no such curve, though single readings can be large; an effect the other way counts as inactive or inconclusive.

Legend:
[1] = Primary qHTS for inhibitors of nuclear receptor binding SET domain protein 2 (NSD2) in an isogenic RCH-ACV NSD2 p.E1099K mutant (9B) (AID 1645876); further: nearly all actives have a fitted effect of over 70% in size
[2] = Primary qHTS for inhibitors of nuclear receptor binding SET domain protein 2 (NSD2) in an RCH-ACV wild type WT cells (2C) (AID 1645877); further: nearly all actives have a fitted effect of over 70% in size
[3] = target: Phospholipid hydroperoxide glutathione peroxidase GPX4 (Homo sapiens) (UniProt P36969); assay: Primary qHTS Assay for Inhibitors of Recombinant Selenoprotein Glutathione Peroxidase 4 (GPX4) (AID 1845192); further: nearly all actives have a fitted effect of over 65% in size
Chain of UniProt P36969 (P36969 whole entry, looked up): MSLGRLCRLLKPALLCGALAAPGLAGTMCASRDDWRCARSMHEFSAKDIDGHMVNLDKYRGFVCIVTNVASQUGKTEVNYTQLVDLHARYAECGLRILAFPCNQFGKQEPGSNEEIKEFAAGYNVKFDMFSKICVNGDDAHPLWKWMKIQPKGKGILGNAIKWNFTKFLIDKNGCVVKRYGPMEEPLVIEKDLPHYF
Summary of the method: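 NADPH consumption followed by fluorescence at 340/450 nm, t=0 and after 15 min at room temperature. Reaction started with cumene hydroperoxide (0.5 mM final) after 30 min compound–GPX4 preincubation; final 200 nM GPX4, 100 nM GR, 1 mM GSH, 0.5 mM NADPH.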

[4] = target: Glutathione peroxidase 1 (Homo sapiens) (UniProt P07203); assay: Primary qHTS Assay for Inhibitors of Recombinant Selenoprotein Glutathione Peroxidase 1 (GPX1) (AID 1845191); further: nearly all actives have a fitted effect of over 65% in size
Chain of UniProt P07203 (P07203 whole entry, looked up): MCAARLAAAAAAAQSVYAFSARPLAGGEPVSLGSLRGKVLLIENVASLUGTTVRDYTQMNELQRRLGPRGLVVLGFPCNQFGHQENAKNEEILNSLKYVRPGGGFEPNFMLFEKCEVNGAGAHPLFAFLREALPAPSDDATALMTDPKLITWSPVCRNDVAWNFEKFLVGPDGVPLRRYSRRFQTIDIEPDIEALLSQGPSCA
Summary of the method: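 NADPH consumption tracked by fluorescence at 340/450 nm between t=0 and t=15 min, room temperature. Final mix: 10 nM GPX1, 100 nM glutathione reductase, 1 mM GSH, 0.5 mM NADPH, 0.5 mM cumene hydroperoxide, 0.01% BSA; 30 min compound–enzyme preincubation.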
Potency means the concentration at half of the fitted maximal effect; tags describe the fitted curve by direction and shape.

| Structure (SMILES) | Potency [1] | Potency [2] | Potency [3] | Potency [4] |
| --- | --- | --- | --- | --- |
| C/C=C(/C)C(=O)O[C@H]1C(C)=CC23C(=O)C(C=C(CO)[C@@H](O)[C@]12O)[C@H]1[C@@H](C[C@H]3C)C1(C)C (stereo partly drawn) | inconclusive: 0.0186 µM [inhibitor, full curve] | inconclusive: 0.0332 µM [inhibitor, full curve, poor fit] | – | – |
| Nc1nc(N)c2nc(-c3cccc(O)c3)cnc2n1 | active: 1.64 µM | active: 1.46 µM | – | – |
| CC(=O)O/N=C1\C(=O)N(Cc2cc(Cl)ccc2Cl)c2ccc(Cl)cc21 | active: 5.9 µM | active: 4.17 µM | inconclusive: 8.06 µM [inhibitor, partial curve] | – |
| C[C@@H]1Cc2c([nH]c3ccccc23)[C@@H](c2c(F)cc(/C=C/C(=O)O)cc2F)N1CC(C)(C)F | inconclusive: 20.9 µM [inhibitor, partial curve] | inconclusive: 23.5 µM [inhibitor, single point] | inconclusive: 22.7 µM [inhibitor, partial curve, poor fit] | – |
| CC(C)c1c(-c2ccccc2)nc2c(C#N)c[nH]n2c1=O | inactive | inactive | – | – |
| CS(=O)(=O)c1ccc(Oc2cc(F)cc(C#N)c2)c2c1[C@H](O)C(F)(F)C2 | inactive | inactive | – | inconclusive: 29 µM [inhibitor, single point] |
| CN1C(=O)N(c2cc(Cl)cc(Cl)c2)C(=O)[C@]12CN(Cc1cc(C(=O)O)cs1)C[C@H]2c1ccc(C#N)cc1 | inconclusive: 23.5 µM [inhibitor, partial curve, poor fit] | inconclusive: 37.2 µM [inhibitor, single point] | inconclusive: 18 µM [inhibitor, partial curve] | – |
